The supplement of paper PMC9334596
Values joined by “and” are separate entries in the source; they are usually repeats but may differ in a detail not shown here. Equal entries are not always repeated. Over roughly 5,300 compounds, “PER2::LUC luminescence relative to vehicle control” has its median near 0.96; the highest 2% begin near 1.3. Some of the results follow.

Tested on: mPer2Luc MEF
Assay: PER2::LUC luminescence relative to vehicle control (fold of vehicle); higher = higher PER2::LUC reporter signal
Conditions: 10 µM
How it was run: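 Mouse embryonic fibroblasts carrying the mPer2Luc reporter were seeded at ~3000 cells per well in 384-well plates, 48 h before compounds from commercial libraries were added at 10 μM. Cells were grown in DMEM with 10% FBS at 37 °C and 5% CO2. Luminescence was read with the ONE-Glo luciferase assay system 24 h and 30 h after treatment, followed by an alamarBlue viability assay. The value is PER2::LUC luminescence as fold of vehicle control.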

| SMILES | PER2::LUC luminescence (time after treatment 24 h) | PER2::LUC luminescence (time after treatment 30 h) |
| --- | --- | --- |
| CN(C(=O)CNC(=O)[C@@H](CC[S+](C)[O-])NC(=O)[C@@H](N)Cc1ccc(O)cc1)[C@H](CO)Cc1ccccc1 (stereo partly specified) | 1.01 | 0.865 |
| CC(C)=CCCC1(C)C=Cc2c(O)c3c(c(CC=C(C)C)c2O1)OC12C(CC4CC1C(C)(C)OC2(C/C=C(/C)C(=O)O)C4O)C3=O (stereo unspecified) | 0.822 | 1.03 |
| CCCN(CCC)CCc1c[nH]c2ccc(C(N)=O)cc12 | 1.08 and 0.996 | 0.893 and 0.932 |
| C[C@H]1CCCC(=O)CCC/C=C/c2cc(O)cc(O)c2C(=O)O1 | 0.967 | 1.03 |
| CN1Cc2ccccc2[C@@H]2c3cccc4[nH]cc(c34)C[C@H]21 | 0.985 | 0.823 |
| O=C(N[C@H]1CN2CCC1CC2)c1ccc(Cl)cc1 | 0.933 | 0.872 |
| O=[N+]([O-])c1ccc2nc(N3CCNCC3)ccc2c1 | 0.993 and 0.677 | 0.966 and 0.716 |
| C=C[C@H]1CN2CC[C@H]1C[C@H]2[C@H](OC(=O)OCC)c1ccnc2ccc(OC)cc12 | 0.868 and 0.922 | 0.903 and 0.845 |
| CC(C)[C@@H]1NC(=O)[C@H](C)OC(=O)[C@@H](C(C)C)NC(=O)[C@@H](C(C)C)OC(=O)[C@H](C(C)C)NC(=O)[C@H](C)OC(=O)[C@@H](C(C)C)NC(=O)[C@@H](C(C)C)OC(=O)[C@H](C(C)C)NC(=O)[C@H](C)OC(=O)[C@@H](C(C)C)NC(=O)[C@@H](C(C)C)OC1=O | 0.238 | 0.28 |
| CC1(C)C(=O)N(c2ccc(C#N)c(C(F)(F)F)c2)C(=S)N1c1ccc(C(N)=O)c(F)c1 | 1.06 | 1.11 |
| C[C@]12CC[C@H]3[C@@H](CCC4=CC(=O)CC[C@@H]43)[C@@H]1CC[C@@H]2O | 0.951 and 0.973 | 1.02 and 0.875 |
| C=CC[C@]1(O)CC[C@H]2[C@@H]3CCC4=CCCC[C@@H]4[C@H]3CC[C@@]21C | 1.24 | 1.24 |
| C[C@H](N)Cc1cnc[nH]1 | 0.983 | 1.02 |
| CC12CCC3C(CCC4=C(O)C(=O)CCC43C)C1CCC2=O (stereo unspecified) | 1.09 | 1.1 |
| Cc1cc(O)ccc1Cl | 1.06 and 1.05 | 1.07 |
| c1ccc(CCCCN2CCC(c3ccccc3)CC2)cc1 | 0.938 | 0.724 |
| C=C(C)[C@H]1CN[C@H](C(=O)O)[C@H]1CC(=O)O | 1.06 | 1.16 |
| CCCC(=O)O[C@@H]1[C@@H](C)[C@@]2(O)[C@@H](C=C(CO)C[C@]3(O)C(=O)C(C)=C[C@@H]23)[C@@H]2C(C)(C)[C@]12OC(=O)CCC | 1.13 | 0.899 |
| CC(=O)O[C@H]1C[C@@H](OC(C)=O)C(C)(C)C2C[C@@H](OC(C)=O)[C@]3(C)C(CC[C@@]4(C)[C@H](c5ccoc5)C(=O)[C@H]5O[C@]543)[C@]21C (stereo partly specified) | 0.843 | 0.847 |
| N[C@@H](Cn1ccc(=O)[nH]c1=O)C(=O)O | 1.08 | 0.995 |
| C[C@@H]1CC[C@@]2(OC1)O[C@H]1[C@@H](O)[C@H]3[C@@H]4CC[C@H]5C[C@@H](O[C@@H]6O[C@H](CO)[C@H](O[C@@H]7O[C@H](CO)[C@@H](O)[C@H](O[C@@H]8OC[C@@H](O)[C@H](O)[C@H]8O)[C@H]7O[C@@H]7O[C@H](CO)[C@H](O)[C@H](O[C@@H]8O[C@H](CO)[C@@H](O)[C@H](O)[C@H]8O)[C@H]7O)[C@H](O)[C@H]6O)[C@H](O)C[C@]5(C)[C@H]4CC[C@]3(C)[C@H]1[C@@H]2C | 0.913 | 1.01 |
| CN1[C@@H]2CC[C@H]1C[C@@H](OC(=O)[C@H](CO)c1ccccc1)C2 | 1.01 and 0.833 | 0.999 and 0.898 |
| Cc1ccc(-c2nc3ccc(C)cn3c2CC(=O)N(C)C)cc1 | 0.474 and 1.21 | 0.954 and 0.98 |
| Nc1nc(N)nc(NC2CC2)n1 | 1.11 | 0.84 |

| SMILES | PER2::LUC luminescence (time after treatment 24 h) | PER2::LUC luminescence (time after treatment 30 h) |
| --- | --- | --- |
| CN(C)CCN(C)CCc1ccc(Cl)c(Cl)c1 | 0.82 and 0.866 | 0.818 and 0.766 |
| C[C@]12CC[C@H](O)C[C@H]1CC[C@@H]1[C@@H]2CC[C@]2(C)[C@@H](c3ccc(=O)oc3)CC[C@]12O | 1.14 | 0.987 |
| C[N+]1([O-])[C@@H]2CC(OC(=O)[C@H](CO)c3ccccc3)C[C@H]1[C@@H]1O[C@@H]12 (single isomer, unassigned; (-)) | 0.991 | 1.04 |
| C[C@H](N)CN1CCc2ccc(Br)cc21 | 0.914 | 0.752 |
| C[C@H]1O[C@H](O[C@H]2[C@H](O)[C@@H](O)[C@@H](O)[C@H](O)[C@@H]2O)[C@@H](N)C[C@@H]1NC(=N)C(=O)O | 0.926 | 0.941 |
| O=[N+]([O-])c1cc(O)c(O)c([N+](=O)[O-])c1 | 1.04 | 0.763 |
| O=C(O)Cc1cccnc1C(=O)O | 0.972 | 0.93 |
| CN[C@@H]1C[C@@H](c2ccc(Cl)c(Cl)c2)c2ccccc21 | 0.87 | 0.694 |
| C[C@H]([C@H](O)CCC(C)(C)O)[C@H]1CC[C@@]2(O)C3=CC(=O)[C@@H]4C[C@@H](O)[C@@H](O)C[C@]4(C)[C@H]3CC[C@]12C | 1.03 | 0.998 |
| C=CCN1C[C@H](C)N([C@H](c2ccc(C(=O)N(CC)CC)cc2)c2cccc(OC)c2)C[C@H]1C | 0.99 | 0.848 |
| O=[N+]([O-])O[C@@H]1CO[C@H]2[C@@H]1OC[C@@H]2O | 0.923 | 0.883 |
| NC(=O)c1ccc(N)nc1 | 0.987 | 0.959 |
| N[C@@H](Cc1ccc(N(CCCl)CCCl)cc1)C(=O)O | 0.566 | 0.521 |
| CCN1C[C@]2(C)CC[C@H](OC)[C@@]34C1[C@]1(OCO[C@@]15C[C@H](OC)[C@H]1C[C@]3(O)[C@@H]5[C@H]1OC)[C@@H](OC(C)=O)[C@H]24 | 1.01 | 1.05 |
| CC(C)=CCOc1c2occc2cc2ccc(=O)oc12 | 1.07 | 1.1 |
| CC(C)N(CCC(C(N)=O)(c1ccccc1)c1ccccn1)C(C)C (stereo unspecified) | 1.06 and 0.901 | 0.992 and 0.862 |
| C[C@H](N)[C@H](O)c1ccc(O)c(O)c1 | 1.01 and 0.781 | 1.02 and 0.965 |
| N=C(N)NN | 0.909 and 0.978 and 0.964 | 1.12 and 0.99 and 0.867 |
| CC(CCc1ccccc1)NC(C)C(O)c1ccc(O)cc1 (stereo unspecified) | 0.896 | 0.948 |
| COc1cccc(C2(O)CCCCC2CN(C)C)c1 (stereo unspecified) | 1.03 and 0.55 | 1.02 and 0.955 |
| CC(=O)OC1CN2CCC1CC2 (stereo unspecified) | 1 and 1.07 | 1.08 and 1 |
| Cc1c(C(=O)c2cccc3ccccc23)c2cccc3c2n1[C@H](CN1CCOCC1)CO3 | 0.977 | 0.838 |
| NC(=O)CN1C[C@H](O)CC1=O | 1.04 | 0.988 |
| O=C(O)CNC(=O)c1c(O)c2ccccc2n(Cc2ccccc2)c1=O | 1 | 0.971 |
